Measurements from the supplement of paper PMC6828730.
The other results are listed elsewhere or left out. Most values come without repeats; read them as rough.

What was measured:
[1] = system: hiPSC-derived cardiomyocytes; test: time to death of most cells in well after compound addition (days); higher = less cardiotoxic; conditions: screen: 1; 10 µM
[2] = system: hiPSC-derived cardiomyocytes; test: time to death of most cells in well after compound addition (days); higher = less cardiotoxic; extreme values may be limits of the assay; conditions: 10 µM

| SMILES | time to death of most cells in well [1] | time to death of most cells in well ([2]; screen: 2) | time to death of most cells in well ([2]; screen: 3) | time to death of most cells in well ([2]; screen: 4) |
| --- | --- | --- | --- | --- |
| CCN(C)S(=O)(=O)Nc1ccc(F)c(C(=O)c2c[nH]c3ncc(-c4cnc(C5CC5)nc4)cc23)c1F | > 7 | > 7 | > 7 | > 7 |
| CO[C@H]1C[C@@H]2CC[C@@H](C)[C@@](O)(O2)C(=O)C(=O)N2CCCC[C@H]2C(=O)O[C@H]([C@H](C)C[C@@H]2CC[C@@H](OCCO)[C@H](OC)C2)CC(=O)[C@H](C)/C=C(\C)[C@@H](O)[C@@H](OC)C(=O)[C@H](C)C[C@H](C)/C=C/C=C/C=C/1C [Everolimus (RAD001)] | 3.5 | > 7 | > 7 | > 7 |
| C#Cc1cccc(Nc2ncnc3cc(OC)c(OCCCCCCC(=O)NO)cc23)c1 | 5 | 4 | 6 | 6 |
| C1=N/C2=N/c3ccc(OCCN4CCCC4)c(c3)COC/C=C/COCc3cccc(c3)C(=C1)N2 [Pacritinib (SB1518)] | 1.5 | 1 | 4 | 5 |
| Cn1c(=O)c(F)c(Nc2ccc(I)cc2F)c2c(=O)n(C[C@@H](O)CO)cnc21 | > 7 | 6 | > 7 | > 7 |
| N#CCNC(=O)c1ccc(-c2ccnc(Nc3ccc(N4CCOCC4)cc3)n2)cc1 [Momelotinib (CYT387)] | 4 | 2 | 6 | > 7 |
| CCNc1nc(Nc2cc(F)c(C(=O)N3CCOCC3)cc2OC)ncc1C(F)(F)F | 3.5 | 2.5 | 6.5 | > 7 |
| O=C1NC(=NCc2cccs2)S/C1=C\c1ccc2ncccc2c1 | > 7 | > 7 | > 7 | > 7 |
| O=C1NC(=O)/C(=C/c2ccc(-c3ccc(F)cc3O)o2)S1 | > 7 | > 7 | > 7 | > 7 |
| CS(=O)(=O)CCNCc1ccc(-c2ccc3ncnc(Nc4ccc(OCc5cccc(F)c5)c(Cl)c4)c3c2)o1 [Lapatinib] | > 7 | > 7 | > 7 | > 7 |
| O=c1[nH]c2ccc(Cl)cc2c(N[C@@H]2CN3CCC2CC3)c1-c1nc2ccccc2[nH]1 | 6 | 4 | 6.5 | > 7 |
| COc1cc(F)c(F)c(Nc2ccc(I)cc2F)c1NS(=O)(=O)C1(C[C@H](O)CO)CC1 [Refametinib (RDEA119, Bay 86-9766)] | > 7 | > 7 | > 7 | > 7 |
| Nc1nc(Nc2ccc(S(N)(=O)=O)cc2)nn1C(=O)c1c(F)cccc1F | 2.5 | 1.5 | 3 | > 7 |
| CCn1c(N)c(C(=O)NC)c(=O)c2ccc(C#CC(C)(O)COC)nc21 (stereo unspecified) | > 7 | > 7 | > 7 | > 7 |
| C#Cc1cccc(Nc2ncnc3cc(OCCOC)c(OCCO)cc23)c1 | > 7 | > 7 | > 7 | > 7 |
| O=C(NOCC1CC1)c1ccc(F)c(F)c1Nc1ccc(I)cc1Cl | > 7 | > 7 | > 7 | > 7 |
| Nc1ncnc2c1c(-c1cnc3[nH]ccc3c1)nn2C1CCCC1 | 6 | 4 | > 7 | > 7 |
| COc1ccc2cc(-c3nc(-c4ccc([S+](C)[O-])cc4)[nH]c3-c3ccncc3)ccc2c1 (stereo unspecified) [Tie2 kinase inhibitor] | > 7 | > 7 | > 7 | > 7 |
| O=c1sn(-c2cccc3ccccc23)c(=O)n1Cc1ccccc1 [Tideglusib] | > 7 | > 7 | > 7 | > 7 |
| CCS(=O)(=O)Nc1ccc2[nH]c(O)c(C(=Nc3ccc(CN4CCCCC4)cc3)c3ccccc3)c2c1 [Hesperadin] | 5 | > 7 | > 7 | > 7 |
| CC(C)CC(NC(=O)C(Cc1ccccc1)NC(=O)C(CCC(N)=O)NC(=O)C(Cc1ccc(O)cc1)NC(=O)C(C)NC(=O)CNC(=O)C(CCCCN)NC(=O)C(Cc1c[nH]c2ccccc12)NC(=O)C(NC(=O)C(Cc1c[nH]c2ccccc12)NC(=O)C(CCCCN)NC(=O)CNC(=O)C(CC(N)=O)NC(=O)C(CCC(=O)O)NC(=O)C(Cc1c[nH]c2ccccc12)NC(=O)C(NC(=O)C(Cc1c[nH]c2ccccc12)NC(=O)C(CO)NC(=O)CNC(=O)C1CCCN1C(=O)C(Cc1c[nH]c2ccccc12)NC(=O)C(CCC(N)=O)NC(=O)C(Cc1ccccc1)NC(=O)CNC(=O)C(N)Cc1c[nH]cn1)C(C)O)C(C)O)C(=O)NC(CCCCN)C(=O)NCC(=O)NCC(=O)NCC(=O)NCC(=O)NC(CO)C(=O)NC(CCCNC(=N)N)C(=O)NC(CCCNC(=N)N)C(=O)NC(CCCNC(=N)N)C(=O)NC(CCCNC(=N)N)C(=O)NC(CCCNC(=N)N)C(=O)NC(CCCNC(=N)N)C(=O)NC(CCCNC(=N)N)C(=O)NC(CCCNC(=N)N)C(=O)NC(CCCNC(=N)N)C(=O)O (stereo unspecified) | 3.5 | 6.5 | > 7 | > 7 |
| CNC(=O)c1c(F)cccc1Nc1nc(Nc2cc3c(cc2OC)CCN3C(=O)CN(C)C)nc2[nH]ccc12 | 3.5 | 4 | 2.5 | > 7 |
| COc1cc2ncnc(Nc3cccc(Cl)c3)c2cc1OC [AG-1478 (Tyrphostin AG-1478)] | > 7 | > 7 | > 7 | > 7 |
| CN1CC[C@H](c2c(O)cc(O)c3c(=O)cc(-c4ccccc4Cl)oc23)[C@H](O)C1 [Flavopiridol (Alvocidib)] | 2 | 2 | 6 | > 7 |
| COc1ccc(S(=O)(=O)N(CCO)c2ccccc2CN(C)C/C=C/c2ccc(Cl)cc2)cc1 [KN-93 Phosphate] | 3.5 | 3 | 3 | 6 |
| FC(F)c1nc2ccccc2n1-c1nc(N2CCOCC2)nc(N2CCOCC2)n1 | > 7 | 3 | > 7 | > 7 |
| N#C/C(=C(/N)Sc1ccc(N)cc1)c1ccccc1C(F)(F)F | > 7 | > 7 | > 7 | > 7 |

| SMILES | time to death of most cells in well [1] | time to death of most cells in well ([2]; screen: 2) | time to death of most cells in well ([2]; screen: 3) | time to death of most cells in well ([2]; screen: 4) |
| --- | --- | --- | --- | --- |
| CC(C)(C)c1ccc(S(=O)(=O)/C=C/C#N)cc1 | 0 | 1 | 2.5 | 0.5 |
| O=C(Nc1cccnc1)c1cc(-c2ccnc(F)c2)ccc1OCc1ccccc1 | > 7 | > 7 | > 7 | > 7 |
| COc1ccc(S(=O)(=O)N(C(C)=O)c2ccccc2/C=C/c2cc[n+]([O-])cc2)cc1 | > 7 | > 7 | > 7 | > 7 |
| CCC(=O)Nc1cccc(Oc2nc(Nc3ccc(N4CCN(C)CC4)cc3OC)ncc2Cl)c1 | 5.5 | 2 | 6.5 | 3.5 |
| Cc1cc2c(F)c(Oc3ncnn4cc(OC[C@@H](C)OC(=O)[C@H](C)N)c(C)c34)ccc2[nH]1 | > 7 | > 7 | > 7 | > 7 |
| Clc1ccc(C2(c3ccc(-c4cn[nH]c4)cc3)CCNCC2)cc1 | 4 | 3.5 | 2.5 | 4.5 |
| CNC(=O)Nc1ccc(-c2nc(N3CC4CCC(C3)O4)c3cnn(C4CCC5(CC4)OCCO5)c3n2)cc1 | > 7 | > 7 | > 7 | > 7 |
| CC(C)c1cnn2c(NCc3ccccc3)cc(NCCCCCCN)nc12 | > 7 | 6.5 | > 7 | > 7 |
| Cn1cnc(-c2cc3nccc(Oc4ccc(NC(=S)NC(=O)Cc5ccccc5)cc4F)c3s2)c1 | > 7 | > 7 | > 7 | > 7 |
| Cc1[nH]c(/C=C2\C(=O)Nc3ccc(S(=O)(=O)N(C)c4cccc(Cl)c4)cc32)c(C)c1C(=O)N1CCN(C)CC1 | > 7 | 4.5 | 4 | > 7 |
| CC(C)(C)c1cc(/C=C(\C#N)C(N)=S)cc(C(C)(C)C)c1O [Tyrphostin AG 879] | > 7 | 5.5 | 0 | > 7 |
| Cc1cc(O)c2c(c1)C(=O)c1cccc(O)c1C2=O [Chrysophanic Acid] | 5.5 | 4 | > 7 | > 7 |
| CCN1CCN(Cc2ccc(-c3cc4c(N[C@H](C)c5ccccc5)ncnc4[nH]3)cc2)CC1 | 2.5 | 2 | 3 | 4 |
| COc1cccc(-c2cc(=O)c3ccccc3o2)c1N | 6 | > 7 | > 7 | > 7 |
| Cc1cnc(NC(=O)Nc2cc(Br)c(C)cc2OC[C@@H]2CNCCO2)cn1 | > 7 | 3 | 6.5 | > 7 |
| CC1=C(C(=O)Nc2cc3cn[nH]c3cc2F)C(c2ccc(C(F)(F)F)cc2)CC(=O)N1 (stereo unspecified) | > 7 | 6.5 | > 7 | > 7 |
| NC(=O)c1cccc(-c2cc(Nc3ccc(OC(F)(F)F)cc3)ncn2)c1 | > 7 | > 7 | > 7 | > 7 |
| O=C(Nc1ccc(-c2ccnc(Nc3ccc(N4CCOCC4)cc3)n2)cc1)C1CCCN1 (stereo unspecified) | 2.5 | 1.5 | 3 | > 7 |
| COc1cc2ncnc(Nc3ccc(Cl)cc3F)c2cc1OC | > 7 | > 7 | > 7 | 1 |
| O=C(c1cccc(Cl)c1F)N1CCN(Cc2cccc(Nc3nccs3)n2)CC1 | 5.5 | 5 | > 7 | > 7 |
| Cc1cc(N2CCOCC2)cc2[nH]c(-c3c(NCC(O)c4cccc(Cl)c4)cc[nH]c3=O)nc12 (stereo unspecified) | 5 | 1.5 | > 7 | > 7 |
| CC[C@@H]1C(=O)N(C)c2cnc(Nc3ccc(C(=O)N[C@H]4CC[C@H](N5CCN(CC6CC6)CC5)CC4)cc3OC)nc2N1C(C)C [Volasertib (BI 6727)] | 2.5 | 3.5 | 2 | 2.5 |
| CC(C)n1nc(-c2ccc3oc(N)nc3c2)c2c(N)ncnc21 | 4.5 | 3.5 | > 7 | > 7 |
| C=CC(=O)Nc1ccc2ncnc(Nc3cccc(Br)c3)c2c1 | > 7 | 3 | > 7 | > 7 |
| C=CCc1ccc(O)c(-c2ccc(O)c(CC=C)c2)c1 [Honokiol] | > 7 | > 7 | > 7 | > 7 |
| Cn1cc(/C=C2\C(=O)Nc3cccnc32)c2ccccc21 | > 7 | > 7 | > 7 | > 7 |
| COc1cc(N2CCC(N(C)C)CC2)ccc1Nc1ncc(Cl)c(Nc2ccccc2P(C)(C)=O)n1 | > 7 | > 7 | 4 | 2.5 |
